Measurements: paper PMC9911399, “Two distinct binding modes provide the RNA-binding protein RbFox with extraordinary sequence specificity”
Changes are numbered by the printed parent chain; changes in the protein carry UniProt numbers. This is one part of the list.

T1: RBFOX1 RRM RbFoxmut (Fox-RRM*) (Homo sapiens, UniProt Q9NWB1 109-208, R118D;E147R;N151S;E152T)
T1 sequence: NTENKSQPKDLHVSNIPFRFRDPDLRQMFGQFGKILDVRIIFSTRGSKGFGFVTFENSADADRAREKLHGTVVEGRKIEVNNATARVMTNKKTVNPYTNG

B1: GGCGGCG (DNA:RNA)
RNA: GGGAGACCGGAAUUCAGAUUGUCCGGCGGCGUUAAAUCCCGUCGUAGCCACCA
DNA 1: CAATCTGAATTCCGGTCTCCC
DNA 2: TGGTGGCTACGACGGGATT
B2: UAUACUC (DNA:RNA)
RNA: GGGAGACCGGAAUUCAGAUUGUCCUAUACUCUUAAAUCCCGUCGUAGCCACCA
DNA 1: CAATCTGAATTCCGGTCTCCC
DNA 2: TGGTGGCTACGACGGGATT
B3: ACGUGCA (DNA:RNA)
RNA: B1 RNA with G25A, G26C, C27G, G28U, G31A
DNA 1: CAATCTGAATTCCGGTCTCCC
DNA 2: TGGTGGCTACGACGGGATT
B4: CACGUAA (DNA:RNA)
RNA: B1 RNA with G25C, G26A, G29U, C30A, G31A
DNA 1: CAATCTGAATTCCGGTCTCCC
DNA 2: TGGTGGCTACGACGGGATT
B5: GAAGAGG (DNA:RNA)
RNA: B1 RNA with G26A, C27A, G29A, C30G
DNA 1: CAATCTGAATTCCGGTCTCCC
DNA 2: TGGTGGCTACGACGGGATT
B6: CUAAUGC (DNA:RNA)
RNA: B2 RNA with U25C, A26U, U27A, C29U, U30G
DNA 1: CAATCTGAATTCCGGTCTCCC
DNA 2: TGGTGGCTACGACGGGATT
B7: UAUCUAA (DNA:RNA)
RNA: B2 RNA with A28C, C29U, U30A, C31A
DNA 1: CAATCTGAATTCCGGTCTCCC
DNA 2: TGGTGGCTACGACGGGATT
B8: GUCCGGU (DNA:RNA)
RNA: B1 RNA with G26U, G28C, C30G, G31U
DNA 1: CAATCTGAATTCCGGTCTCCC
DNA 2: TGGTGGCTACGACGGGATT
B9: UUUAUCC (DNA:RNA)
RNA: B2 RNA with A26U, C29U, U30C
DNA 1: CAATCTGAATTCCGGTCTCCC
DNA 2: TGGTGGCTACGACGGGATT
B10: GCGGUAC (DNA:RNA)
RNA: B1 RNA with G26C, C27G, G29U, C30A, G31C
DNA 1: CAATCTGAATTCCGGTCTCCC
DNA 2: TGGTGGCTACGACGGGATT
B11: GCUUUUC (DNA:RNA)
RNA: B2 RNA with U25G, A26C, A28U, C29U
DNA 1: CAATCTGAATTCCGGTCTCCC
DNA 2: TGGTGGCTACGACGGGATT
B12: AUGGGGG (DNA:RNA)
RNA: B1 RNA with G25A, G26U, C27G, C30G
DNA 1: CAATCTGAATTCCGGTCTCCC
DNA 2: TGGTGGCTACGACGGGATT
B13: UGGGCCA (DNA:RNA)
RNA: B1 RNA with G25U, C27G, G29C, G31A
DNA 1: CAATCTGAATTCCGGTCTCCC
DNA 2: TGGTGGCTACGACGGGATT
B14: AAACGUA (DNA:RNA)
RNA: B2 RNA with U25A, U27A, A28C, C29G, C31A
DNA 1: CAATCTGAATTCCGGTCTCCC
DNA 2: TGGTGGCTACGACGGGATT
B15: GAGUGUA (DNA:RNA)
RNA: B1 RNA with G26A, C27G, G28U, C30U, G31A
DNA 1: CAATCTGAATTCCGGTCTCCC
DNA 2: TGGTGGCTACGACGGGATT
B16: AUUGUCA (DNA:RNA)
RNA: B1 RNA with G25A, G26U, C27U, G29U, G31A
DNA 1: CAATCTGAATTCCGGTCTCCC
DNA 2: TGGTGGCTACGACGGGATT
B17: AGCCAUA (DNA:RNA)
RNA: B1 RNA with G25A, G28C, G29A, C30U, G31A
DNA 1: CAATCTGAATTCCGGTCTCCC
DNA 2: TGGTGGCTACGACGGGATT
B18: AUCAUAA (DNA:RNA)
RNA: B1 RNA with G25A, G26U, G28A, G29U, C30A, G31A
DNA 1: CAATCTGAATTCCGGTCTCCC
DNA 2: TGGTGGCTACGACGGGATT
B19: UAUUAAG (DNA:RNA)
RNA: B2 RNA with A28U, C29A, U30A, C31G
DNA 1: CAATCTGAATTCCGGTCTCCC
DNA 2: TGGTGGCTACGACGGGATT
B20: UGCCGAA (DNA:RNA)
RNA: B1 RNA with G25U, G28C, C30A, G31A
DNA 1: CAATCTGAATTCCGGTCTCCC
DNA 2: TGGTGGCTACGACGGGATT
B21: GGGUGAC (DNA:RNA)
RNA: B1 RNA with C27G, G28U, C30A, G31C
DNA 1: CAATCTGAATTCCGGTCTCCC
DNA 2: TGGTGGCTACGACGGGATT
B22: AAAGACG (DNA:RNA)
RNA: B1 RNA with G25A, G26A, C27A, G29A
DNA 1: CAATCTGAATTCCGGTCTCCC
DNA 2: TGGTGGCTACGACGGGATT
B23: CCUACGU (DNA:RNA)
RNA: B2 RNA with U25C, A26C, U30G, C31U
DNA 1: CAATCTGAATTCCGGTCTCCC
DNA 2: TGGTGGCTACGACGGGATT
B24: CGAUUCU (DNA:RNA)
RNA: B1 RNA with G25C, C27A, G28U, G29U, G31U
DNA 1: CAATCTGAATTCCGGTCTCCC
DNA 2: TGGTGGCTACGACGGGATT
B25: AGGCCUU (DNA:RNA)
RNA: B2 RNA with U25A, A26G, U27G, A28C, C31U
DNA 1: CAATCTGAATTCCGGTCTCCC
DNA 2: TGGTGGCTACGACGGGATT
B26: GGUGUUU (DNA:RNA)
RNA: B1 RNA with C27U, G29U, C30U, G31U
DNA 1: CAATCTGAATTCCGGTCTCCC
DNA 2: TGGTGGCTACGACGGGATT
B27: AUCUCUC (DNA:RNA)
RNA: B2 RNA with U25A, A26U, U27C, A28U
DNA 1: CAATCTGAATTCCGGTCTCCC
DNA 2: TGGTGGCTACGACGGGATT
B28: GCUGACC (DNA:RNA)
RNA: B1 RNA with G26C, C27U, G29A, G31C
DNA 1: CAATCTGAATTCCGGTCTCCC
DNA 2: TGGTGGCTACGACGGGATT
B29: CUUGUUC (DNA:RNA)
RNA: B2 RNA with U25C, A26U, A28G, C29U
DNA 1: CAATCTGAATTCCGGTCTCCC
DNA 2: TGGTGGCTACGACGGGATT
B30: CCGCAGG (DNA:RNA)
RNA: B1 RNA with G25C, G26C, C27G, G28C, G29A, C30G
DNA 1: CAATCTGAATTCCGGTCTCCC
DNA 2: TGGTGGCTACGACGGGATT
B31: AUGCGGC (DNA:RNA)
RNA: B1 RNA with G25A, G26U, C27G, G28C, C30G, G31C
DNA 1: CAATCTGAATTCCGGTCTCCC
DNA 2: TGGTGGCTACGACGGGATT

Biological target: T1, RBFOX1 RRM RbFoxmut (Fox-RRM*)
Test: EMSA; HiTS-Eq, 1 nM pool, 10 min; buffer printed only for the single-RNA assays: 10 mM Tris pH 7.5, 150 mM NaCl, 3.4 mM EDTA, 0.001% NP-40, 30 C
Conditions: tags: His6 N-terminal (pET28a); label: 5' 32P
Procedure, shortened: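 Purified RbFox RRM (wild type or mutant) was equilibrated for 10 min in 50 µL with 1 nM of a 5′-radiolabelled pool of RNA with 7 randomized nucleotides, its flanks annealed to DNA oligonucleotides, across increasing protein concentrations. Free RNA was separated by 8% native PAGE, excised, reverse-transcribed, PCR-barcoded and sequenced on an Illumina HiSeq 2500. Relative association constants came from read-count changes of each variant against the control reaction, normalised to the cognate motif.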

Q: How did the binding signal turn out when B1 was run?
A: 0.123 KA relative to UGCAUGU

Q: B2 was tested. Which binding signal did it give?
A: 0.0468 KA relative to UGCAUGU

Q: B3 was tested. Which binding signal did it give?
A: 0.199 KA relative to UGCAUGU

Q: B4 was tested. Which binding signal did it give?
A: 0.128 KA relative to UGCAUGU

Q: Which binding signal does the source give for B5 here?
A: 0.0495 KA relative to UGCAUGU

Q: For B6, which binding signal is on record?
A: 0.0851 KA relative to UGCAUGU

Q: For B7, which binding signal is on record?
A: 0.0736 KA relative to UGCAUGU

Q: With B8 as the binder, how does the binding signal read?
A: 0.132 KA relative to UGCAUGU

Q: B9 was tested. Which binding signal did it give?
A: 0.0604 KA relative to UGCAUGU

Q: How did the binding signal turn out when B10 was run?
A: 0.104 KA relative to UGCAUGU

Q: How did the binding signal turn out when B11 was run?
A: 0.0442 KA relative to UGCAUGU

Q: With B12 as the binder, how does the binding signal read?
A: 0.108 KA relative to UGCAUGU

Q: Which binding signal does the source give for B13 here?
A: 0.115 KA relative to UGCAUGU

Q: B14 was tested. Which binding signal did it give?
A: 0.111 KA relative to UGCAUGU

Q: With B15 as the binder, how does the binding signal read?
A: 0.258 KA relative to UGCAUGU

Q: How did the binding signal turn out when B16 was run?
A: 0.134 KA relative to UGCAUGU

Q: B17 was tested. Which binding signal did it give?
A: 0.0885 KA relative to UGCAUGU

Q: With B18 as the binder, how does the binding signal read?
A: 0.124 KA relative to UGCAUGU

Q: B19 was tested. Which binding signal did it give?
A: 0.115 KA relative to UGCAUGU

Q: For B20, which binding signal is on record?
A: 0.131 KA relative to UGCAUGU

Q: How did the binding signal turn out when B21 was run?
A: 0.105 KA relative to UGCAUGU

Q: How did the binding signal turn out when B22 was run?
A: 0.095 KA relative to UGCAUGU

Q: Which binding signal does the source give for B23 here?
A: 0.146 KA relative to UGCAUGU

Q: B24 was tested. Which binding signal did it give?
A: 0.081 KA relative to UGCAUGU

Q: For B25, which binding signal is on record?
A: 0.0636 KA relative to UGCAUGU

Q: B26 was tested. Which binding signal did it give?
A: 0.0966 KA relative to UGCAUGU

Q: How did the binding signal turn out when B27 was run?
A: 0.0692 KA relative to UGCAUGU

Q: B28 was tested. Which binding signal did it give?
A: 0.0965 KA relative to UGCAUGU

Q: For B29, which binding signal is on record?
A: 0.111 KA relative to UGCAUGU

Q: With B30 as the binder, how does the binding signal read?
A: 0.0996 KA relative to UGCAUGU

Q: Which binding signal does the source give for B31 here?
A: 0.115 KA relative to UGCAUGU
